The supplement of paper PMC3334620
Whole data set: some 33,000 sequences, median “E-score (-0.5 to 0.5)” near -0.012, cut for the highest 2% near 0.27. The list shows a part of the results.

These sequences were tested against T1, Vhr1 (UniProt P40522) (assay: PBM E-score (8-mer binding enrichment) (E-score (-0.5 to 0.5)); higher = stronger / more preferred TF binding; most listed sequences are background and not binding sites). Settings: protein concentration: 200 nM; construct: GST-full length.
T1 sequence: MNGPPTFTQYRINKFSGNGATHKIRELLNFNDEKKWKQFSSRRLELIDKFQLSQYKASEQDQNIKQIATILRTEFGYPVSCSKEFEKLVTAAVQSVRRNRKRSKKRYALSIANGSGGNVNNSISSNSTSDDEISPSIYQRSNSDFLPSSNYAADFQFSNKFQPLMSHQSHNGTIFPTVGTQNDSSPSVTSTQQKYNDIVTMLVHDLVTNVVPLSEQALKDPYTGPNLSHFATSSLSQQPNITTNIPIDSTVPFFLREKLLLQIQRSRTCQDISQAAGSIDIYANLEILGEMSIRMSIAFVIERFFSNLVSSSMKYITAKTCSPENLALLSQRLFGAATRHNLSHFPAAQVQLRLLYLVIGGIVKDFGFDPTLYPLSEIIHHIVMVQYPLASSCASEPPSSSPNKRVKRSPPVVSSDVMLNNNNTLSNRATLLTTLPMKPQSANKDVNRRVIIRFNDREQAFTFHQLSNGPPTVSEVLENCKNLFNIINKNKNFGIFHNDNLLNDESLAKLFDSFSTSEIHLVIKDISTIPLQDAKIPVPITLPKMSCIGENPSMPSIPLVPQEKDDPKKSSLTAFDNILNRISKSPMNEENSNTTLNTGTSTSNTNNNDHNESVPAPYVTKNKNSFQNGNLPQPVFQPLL
In short: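 Bound GST-tagged yeast transcription factors, applied at about 100-200 nM to double-stranded universal all-10-mer Agilent arrays, were detected with fluorescent anti-GST. Scans were normalised with masliner. A modified Wilcoxon-Mann-Whitney statistic, the E-score, was assigned to each ungapped eight-base word pooled with its reverse complement by the Universal PBM Analysis Suite.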
GCGAGTAC was tested, and the “PBM E-score” value was 0.174.
In the case of AGTCAGCA, the “PBM E-score” value is reported as 0.346.
In the case of ACAGGGGA, the “PBM E-score” value is reported as -0.0503.
With CCTTGTCC the “PBM E-score” value was -0.053.
In the case of TACGTGGA, the “PBM E-score” value is reported as -0.106.
For CGTTGAAG, the “PBM E-score” value was -0.182.
With CTCTGCTC the “PBM E-score” value was -0.00466.
With AGCTTAAT the “PBM E-score” value was 0.0391.
GATCTGTA was tested, and the “PBM E-score” value was 0.0606.
GTATCTGA was tested, and the “PBM E-score” value was 0.113.
AGGTCATG was tested, and the “PBM E-score” value was 0.136.
In the case of CCGTGACA, the “PBM E-score” value is reported as 0.192.
In the case of AGGCTTTG, the “PBM E-score” value is reported as -0.177.
With CGGGTGGC the “PBM E-score” value was 0.064.
With CTCCCGGC the “PBM E-score” value was 0.119.
AAACGTCT was tested, and the “PBM E-score” value was -0.147.
For CGTTGTCA, the “PBM E-score” value was -0.00706.
AAGTGGAT was tested, and the “PBM E-score” value was 0.0246.
With AGGTCAGA the “PBM E-score” value was -0.145.
ATGCTCGG was tested, and the “PBM E-score” value was -0.0409.
For TTAGTCAA, the “PBM E-score” value was 0.168.
With CCTGGTGC the “PBM E-score” value was 0.0619.
In the case of GCGGAGGA, the “PBM E-score” value is reported as -0.181.
With AAACGGAA the “PBM E-score” value was -0.11.
For ACGCGTGG, the “PBM E-score” value was 0.199.
For CCAGACGC, the “PBM E-score” value was -0.029.
For CAACTAAC, the “PBM E-score” value was 0.202.
In the case of CCTATGGA, the “PBM E-score” value is reported as -0.0875.
In the case of ATGTGTAC, the “PBM E-score” value is reported as 0.263.
In the case of ATGAGCTG, the “PBM E-score” value is reported as 0.0111.
AGCACTAC was tested, and the “PBM E-score” value was 0.0499.
In the case of ACCCTGCG, the “PBM E-score” value is reported as 0.06.
In the case of AAGTGCCT, the “PBM E-score” value is reported as -0.273.
CAACCGGC was tested, and the “PBM E-score” value was 0.0597.
With ATTAGCTA the “PBM E-score” value was 0.0108.
ATTCGCCC was tested, and the “PBM E-score” value was 0.0149.
For ATAGCGCC, the “PBM E-score” value was 0.0931.
With CAAGCAGA the “PBM E-score” value was -0.138.
AACCTAAC was tested, and the “PBM E-score” value was -0.149.
AAGGTGGG was tested, and the “PBM E-score” value was -0.012.
In the case of TGCCCAAA, the “PBM E-score” value is reported as -0.197.
CCAGATAA was tested, and the “PBM E-score” value was 0.11.
In the case of GGCATTTA, the “PBM E-score” value is reported as -0.164.
In the case of ATACCCTG, the “PBM E-score” value is reported as 0.0199.
For AGAATAAG, the “PBM E-score” value was -0.138.
In the case of GCCATCTA, the “PBM E-score” value is reported as -0.0922.
In the case of CCTGTAGA, the “PBM E-score” value is reported as -0.075.
AGATCAAA was tested, and the “PBM E-score” value was -0.105.
For CTAAGCCA, the “PBM E-score” value was -0.0787.
In the case of CTGAGTAA, the “PBM E-score” value is reported as 0.153.
With ATAATAAC the “PBM E-score” value was -0.00725.
ACTCCACG was tested, and the “PBM E-score” value was -0.104.
In the case of AAATGAAG, the “PBM E-score” value is reported as 0.0729.
In the case of AACGCGCA, the “PBM E-score” value is reported as -0.0323.
For ACTGCTGA, the “PBM E-score” value was 0.131.
In the case of ACAAACCA, the “PBM E-score” value is reported as 0.0102.
AGTTGGAC was tested, and the “PBM E-score” value was -0.121.
With CTCCTTGA the “PBM E-score” value was -0.0344.
For ACCAAGCT, the “PBM E-score” value was 0.105.
With CATGTTGG the “PBM E-score” value was -0.044.
In the case of GGCAATCA, the “PBM E-score” value is reported as 0.0834.
In the case of CACCAGGG, the “PBM E-score” value is reported as 0.0715.
In the case of ACGAGTAT, the “PBM E-score” value is reported as 0.126.
AGTCCCAG was tested, and the “PBM E-score” value was -0.0249.
For AAAAAATT, the “PBM E-score” value was -0.248.
In the case of CCGTTAAC, the “PBM E-score” value is reported as -0.21.
With GGGCCGCA the “PBM E-score” value was -0.0185.
